# Measured values: PubChem BioAssay (NCATS)
# “And” between values parts separate entries of the source, which are not always exact repeats. Equal entries are not always repeated. Inconclusive results, whose numbers are uncertain, are shown with a selection of clear calls. Where the call is inconclusive, the potency comes from a doubtful curve fit. The source made the active and inactive calls. Calls come from the whole dose curve; as a rule, active = well fitted curve in the direction sought with a large enough effect; inconclusive = small, poorly fitted or top-dose-only effect, or another doubt; inactive = no such curve, though single readings can be large; an effect the other way counts as inactive or inconclusive.
# Columns and labels:
# [1] = qHTS of pediatric cancer cell lines to identify multiple opportunities for drug repurposing: Primary screen for SK-N-SH cells (AID 1347098); conditions: SK-N-SH viability, CellTiter-Glo luminescence, 48 h; activity change, negative = cytotoxic: at 57 µM (top of the series); note: nearly all actives have a fitted effect of over 65% in size;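 for activity change, negative = cytotoxic: DMSO served as neutral control and bortezomib at 2.3 µM as positive control; % is set by controls: 0 for no effect and ±100 for the full control effect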
# In short: (§1)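 Cells (500-1,000/well) rested 5 h, then received compounds for 48 h; metabolically active cells were measured by CellTiter-Glo luminescence. Final concentrations spanned up to 46 µM (MIPE, 11-point) or 0.59 nM-46 µM (NPC, 8-point) in primary screens, 11-point in follow-ups.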
# [2] = qHTS of pediatric cancer cell lines to identify multiple opportunities for drug repurposing: Primary screen for LAN-5 cells (AID 1347100); conditions: LAN-5 neuroblastoma viability, CellTiter-Glo luminescence, 48 h; activity change, negative = cytotoxic: at 46 µM (top of the series);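 for activity change, negative = cytotoxic: plate controls were DMSO neutral control for no effect and bortezomib positive control for full effect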
# In short: as §1
# [3] = qHTS of pediatric cancer cell lines to identify multiple opportunities for drug repurposing: Primary screen for BT-12 cells (AID 1347101); note: nearly all actives have a fitted effect of over 25% in size;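 for activity change, negative = cytotoxic: plate controls were DMSO for no effect and bortezomib positive control for full effect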
# In short: as §1
# [4] = qHTS of pediatric cancer cell lines to identify multiple opportunities for drug repurposing: Primary screen for OHS-50 cells (AID 1347103); note: nearly all actives have a fitted effect of over 40% in size;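 for activity change, negative = cytotoxic: plate controls were DMSO neutral control for no effect and bortezomib positive control for full effect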
# In short: as §1
# [5] = qHTS of pediatric cancer cell lines to identify multiple opportunities for drug repurposing: Primary screen for Rh18 cells (AID 1347102); conditions: Rh18 rhabdomyosarcoma viability, CellTiter-Glo luminescence, 48 h; activity change, negative = cytotoxic: at 46 µM (top of the series); note: nearly all actives have a fitted effect of over 65% in size; for activity change, negative = cytotoxic: % is set by controls: 0 for no effect and ±100 for the full control effect
# In short: as §1
# [6] = qHTS of pediatric cancer cell lines to identify multiple opportunities for drug repurposing: Primary screen for RD cells (AID 1347104); note: nearly all actives have a fitted effect of over 55% in size;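 for activity change, negative = cytotoxic: plate controls were DMSO for no effect and bortezomib for full effect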
# In short: (§2)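 Cells seeded at 500-1,000 cells/well in growth media, rested 5 hours at 37 degrees C, 5% CO2, then dosed; MIPE compounds at 11-point (from 0.78 nM) and NPC at 8-point (from 0.59 nM) final concentrations. Viability by CellTiter-Glo luminescence after 48 hours.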
# [7] = qHTS of pediatric cancer cell lines to identify multiple opportunities for drug repurposing: Primary screen for MG 63 (6-TG R) cells (AID 1347105); conditions: MG 63 (6-TG R) viability, CellTiter-Glo, 48 h; activity change, negative = cytotoxic: at 46 µM (top of the series); note: nearly all actives have a fitted effect of over 50% in size; for activity change, negative = cytotoxic: % is set by controls: 0 for no effect and ±100 for the full control effect
# In short: as §2
# [8] = qHTS of pediatric cancer cell lines to identify multiple opportunities for drug repurposing: Primary screen for control Hh wild type fibroblast cells (AID 1347106); note: nearly all actives have a fitted effect of over 55% in size
# In short: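 Viability after 48 h compound treatment at 37C, 500-1,000 cells/well, read as ATP luminescence with CellTiter-Glo. Primary screens used 11-point (MIPE, 0.78 nM-46 µM) or 8-point (NPC, 0.59 nM-46 µM) final concentrations; follow-up screens used 11-point dilutions.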
# [9] = qHTS of pediatric cancer cell lines to identify multiple opportunities for drug repurposing: Primary screen for NB1643 cells (AID 1347099); note: nearly all actives have a fitted effect of over 50% in size;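 for activity change, negative = cytotoxic: plate controls were DMSO neutral control for no effect and bortezomib positive control for full effect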
# In short: as §2
# Potency is the fitted concentration of half-maximal effect; tags give direction and shape of the fitted curve.
structure (smiles),measurement,setting,value
O=C1[C@H]2CCCC[C@H]2C(=O)N1CCCCN1CCN(c2nsc3ccccc23)CC1,Potency,[1],inactive
same,Potency,[2],"inconclusive: 26.6 µM [cytotoxic, single point]"
same,Potency,[3],"inconclusive: 21.9 µM [cytotoxic, single point]"
same,Potency,[4],"inconclusive: 21.9 µM [cytotoxic, single point]"
Nc1ccn([C@@H]2O[C@H](CO)[C@@H](O)C2O)c(=O)n1 (stereo partly specified),Potency,[1],inactive
same,Potency,[2],inactive
same,Potency,[4],inactive
O=C(CCCN1CCC(O)(c2cccc(C(F)(F)F)c2)CC1)c1ccc(F)cc1,Potency,[1],inactive
same,Potency,[2],inactive
same,Potency,[3],"inconclusive: 19.5 µM [cytotoxic, single point]"
same,Potency,[5],"inconclusive: 21.1 µM [cytotoxic, partial curve, poor fit]"
same,Potency,[4],"inconclusive: 19.5 µM [cytotoxic, partial curve]"
same,Potency,[6],"inconclusive: 26.6 µM [cytotoxic, single point]"
CCC1=C[C@@H]2CN(C1)Cc1c([nH]c3ccccc13)[C@@](C(=O)OC)(c1cc3c(cc1OC)N(C)[C@@H]1[C@@](O)(C(=O)OC)[C@H](OC(C)=O)[C@]4(CC)C=CCN5CC[C@]31[C@@H]54)C2,Potency,[1],"inconclusive: 0.0341 µM [cytotoxic, full curve]"
same,Potency,[3],active: 0.0769 µM
same,Potency,[5],"inconclusive: 0.332 µM [cytotoxic, full curve]"
same,Potency,[7],"inconclusive: 0.118 µM [cytotoxic, full curve]"
same,Potency,[8],"inconclusive: 0.166 µM [cytotoxic, full curve]"
NS(=O)(=O)Cc1noc2ccccc12,Potency,[1],inactive
same,Potency,[2],inactive
same,Potency,[3],inactive
CCn1c(-c2nonc2N)nc2cnc(Oc3cccc(NC(=O)c4ccc(OCCN5CCOCC5)cc4)c3)cc21,Potency,[1],"inconclusive: 7.64 µM [cytotoxic, partial curve]"
same,Potency,[9],"inconclusive: 0.372 µM [cytotoxic, full curve, poor fit]"
same,Potency,[6],"inconclusive: 16.6 µM [cytotoxic, partial curve]"
COc1ccc(-c2cc(C(F)F)nn2-c2ccc(S(N)(=O)=O)cc2)cc1F,Potency,[1],inactive
same,Potency,[4],inactive
CCN(CC)CCCN(c1ccccc1)C1Cc2ccccc2C1,Potency,[1],"inconclusive: 27.3 µM [cytotoxic, single point]"
same,Potency,[2],"inconclusive: 26.6 µM [cytotoxic, partial curve, poor fit]"
same,Potency,[3],"inconclusive: 13.8 µM [cytotoxic, single point]"
same,Potency,[4],"inconclusive: 15.5 µM [cytotoxic, partial curve]"
same,Potency,[6],"inconclusive: 26.6 µM [cytotoxic, single point]"
CC(=O)c1ccc2c(c1)N(CCCN1CCC(CCO)CC1)c1ccccc1S2,Potency,[1],"inconclusive: 38.6 µM [cytotoxic, single point]"
same,Potency,[3],"inconclusive: 24.6 µM [cytotoxic, single point]"
same,Potency,[5],"inconclusive: 18.8 µM [cytotoxic, partial curve]"
same,Potency,[4],"inconclusive: 17.4 µM [cytotoxic, partial curve]"
same,Potency,[6],"inconclusive: 26.6 µM [cytotoxic, single point]"
CC(C)=CCC[C@@](C)(O)[C@H]1CC=C(C)CC1,Potency,[1],inactive
same,Potency,[2],inactive
same,Potency,[3],inactive
O=C(O)Cn1nnc(-c2cc(N3CCC(Oc4cc(F)ccc4Br)CC3)no2)n1,Potency,[1],"inconclusive: 24.1 µM [cytotoxic, partial curve]"
same,Potency,[9],inactive
same,Potency,[4],"inconclusive: 24.3 µM [cytotoxic, partial curve, poor fit]"
same,Potency,[6],"inconclusive: 0.935 µM [cytotoxic, full curve]"
Cc1cc2c(C(C)C)c(O)c(O)c(C=O)c2c(O)c1-c1c(C)cc2c(C(C)C)c(O)c(O)c(C=O)c2c1O,Potency,[1],"inconclusive: 38.6 µM [cytotoxic, single point] and inconclusive: 42.9 µM [cytotoxic, single point]"
same,Potency,[5],"inconclusive: 21.1 µM [cytotoxic, single point] and active: 23.5 µM"
CC[C@@H]1C(=O)N(C)c2cnc(Nc3ccc(C(=O)NC4CCN(C)CC4)cc3OC)nc2N1C1CCCC1,Potency,[1],active: 2.41 µM
same,Potency,[3],active: 0.172 µM
same,Potency,[5],active: 5.9 µM
same,Potency,[4],active: 0.0544 µM
same,Potency,[7],"inconclusive: 0.148 µM [cytotoxic, full curve]"
CC(C(O)c1ccc(O)cc1)N1CCC(Cc2ccccc2)CC1 (stereo unspecified),Potency,[1],"inconclusive: 0.0027 µM [cytotoxic, full curve, poor fit]"
same,Potency,[4],"inconclusive: 34.7 µM [cytotoxic, single point]"
same,Potency,[6],inactive
same,"activity change, negative = cytotoxic",[7],inconclusive: -31.4% [cytotoxic]
CC12CC3CC(C)(C1)CC(N)(C3)C2,Potency,[1],"active: 27.1 µM and inconclusive: 1.22 µM [cytotoxic, full curve, poor fit]"
same,Potency,[2],"inconclusive: 6.62 µM [cytotoxic, full curve]"
same,Potency,[3],inactive
same,Potency,[5],"inconclusive: 7.43 µM [cytotoxic, single point]"
same,Potency,[4],"inconclusive: 2.17 µM [cytotoxic, full curve] and inconclusive: 21.9 µM [cytotoxic, single point]"
same,"activity change, negative = cytotoxic",[7],inconclusive: -72.3% [cytotoxic]
COc1ccc(-c2ccc3c(N4CCOCC4)nc(N4C[C@@H](C)O[C@@H](C)C4)nc3n2)cc1CO,Potency,[1],"inconclusive: 4.82 µM [cytotoxic, partial curve]"
same,Potency,[2],"inconclusive: 3.72 µM [cytotoxic, partial curve]"
same,Potency,[3],"inconclusive: 0.544 µM [cytotoxic, full curve]"
same,Potency,[5],"inconclusive: 3.72 µM [cytotoxic, partial curve]"
same,Potency,[6],"inconclusive: 0.743 µM [cytotoxic, full curve]"
CCc1cccc(CC)c1NC(=O)N1Cc2[nH]nc(NC(=O)c3ccc(N4CCN(C)CC4)cc3)c2C1,Potency,[1],active: 6.07 µM
same,Potency,[2],active: 0.296 µM
same,Potency,[4],"inconclusive: 24.3 µM [cytotoxic, partial curve]"
same,Potency,[6],"inconclusive: 16.6 µM [cytotoxic, partial curve]"
C[C@@H]1C[C@H]2[C@@H]3CCC4=CC(=O)C=C[C@]4(C)[C@@]3(F)[C@@H](O)C[C@]2(C)[C@@]1(O)C(=O)CO,Potency,[1],"inconclusive: 27.3 µM [cytotoxic, single point]"
same,Potency,[2],inactive
same,Potency,[4],inactive
same,Potency,[7],"inconclusive: 29.6 µM [cytotoxic, single point]"
CN(C)CCOc1ccccc1Cc1ccccc1,Potency,[1],"inconclusive: 43.3 µM [cytotoxic, single point]"
same,Potency,[2],inactive
same,Potency,[4],"inconclusive: 19.5 µM [cytotoxic, partial curve]"
CC[C@H]1CN2CCc3cc(OC)c(OC)cc3[C@H]2C[C@@H]1C[C@@H]1NCCc2cc(OC)c(OC)cc21,Potency,[1],active: 0.341 µM
same,Potency,[2],active: 0.833 µM
same,Potency,[5],active: 2.09 µM
same,Potency,[7],"inconclusive: 1.48 µM [cytotoxic, full curve]"
CC(C)CN(C[C@H](O)[C@H](Cc1ccccc1)NC(=O)O[C@H]1CCOC1)S(=O)(=O)c1ccc(N)cc1,Potency,[1],"inconclusive: 42.9 µM [cytotoxic, single point]"
same,Potency,[3],"inconclusive: 21.7 µM [cytotoxic, partial curve, poor fit]"
same,Potency,[4],"inconclusive: 21.7 µM [cytotoxic, partial curve]"
same,Potency,[6],"inconclusive: 18.7 µM [cytotoxic, partial curve, poor fit]"
same,"activity change, negative = cytotoxic",[7],inconclusive: -33% [cytotoxic]
C#C[C@]1(O)CC[C@@H]2[C@@H]3CCc4cc(O)ccc4[C@H]3CC[C@@]21C,Potency,[1],active: 24.1 µM
same,Potency,[2],"inconclusive: 16.6 µM [cytotoxic, partial curve]"
same,Potency,[3],"inconclusive: 27.3 µM [cytotoxic, single point]"
same,Potency,[5],"inconclusive: 23.5 µM [cytotoxic, single point]"
same,Potency,[6],active: 18.7 µM
same,Potency,[7],active: 23.5 µM
O=C(CCCCCCNC(=O)c1cnc(N(c2ccccc2)c2ccccc2)nc1)NO,Potency,[1],active: 10.8 µM
same,Potency,[3],active: 17.2 µM
same,Potency,[6],active: 13.2 µM
COC(=O)Nc1nc2ccc(C(=O)c3cccs3)cc2[nH]1,Potency,[1],"inconclusive: 0.077 µM [cytotoxic, full curve, poor fit]"
same,Potency,[2],active: 3.3 nM and active: 119 nM
same,Potency,[3],active: 19.3 nM and active: 347 nM
same,"activity change, negative = cytotoxic",[5],inconclusive: -31% [cytotoxic]
same,Potency,[4],active: 8.6 nM and active: 309 nM
same,Potency,[6],"inconclusive: 4.7 nM [cytotoxic, full curve, poor fit] and inconclusive: 84.1 nM [cytotoxic, full curve, poor fit]"
same,Potency,[7],"inconclusive: 7.4 nM [cytotoxic, full curve, poor fit] and inconclusive: 106 nM [cytotoxic, full curve, poor fit]"
same,Potency,[8],"inconclusive: 0.0526 µM [cytotoxic, full curve, poor fit]"
NC(N)=NC(N)=NCCc1ccccc1,Potency,[1],inactive
same,"activity change, negative = cytotoxic",[2],inconclusive: -41.3% [cytotoxic]
same,Potency,[3],"inconclusive: 11 µM [cytotoxic, partial curve]"
same,Potency,[6],"inconclusive: 13.3 µM [cytotoxic, partial curve] and inconclusive: 16.6 µM [cytotoxic, partial curve]"
Cc1ccc(NC(=O)Nc2cc(C(F)(F)F)ccc2F)cc1Nc1ccc2c(c1)NC(=O)C2=Cc1ccc[nH]1,Potency,[1],active: 30.4 µM
same,Potency,[2],"inconclusive: 26.4 µM [cytotoxic, single point]"
same,Potency,[3],"inconclusive: 30.6 µM [cytotoxic, single point]"
same,Potency,[5],"inconclusive: 37.2 µM [cytotoxic, single point]"
same,Potency,[6],active: 18.7 µM
